Data from publication PMC4336329 (PLoS ONE, 2015).
Screen size: about 310,000 compounds; about 2,200 (0.71%) showed an effect of 50% or more. Effects have a minus sign here. The list shows a part of the results.

Target: human ether-à-go-go-related gene (hERG) potassium channel (human, UniProt Q12809)
Test: primary screen, population patch clamp on CHO cells stably expressing hERG

human ether-à-go-go-related gene (hERG) potassium channel, sequence (Q12809 whole entry, looked up): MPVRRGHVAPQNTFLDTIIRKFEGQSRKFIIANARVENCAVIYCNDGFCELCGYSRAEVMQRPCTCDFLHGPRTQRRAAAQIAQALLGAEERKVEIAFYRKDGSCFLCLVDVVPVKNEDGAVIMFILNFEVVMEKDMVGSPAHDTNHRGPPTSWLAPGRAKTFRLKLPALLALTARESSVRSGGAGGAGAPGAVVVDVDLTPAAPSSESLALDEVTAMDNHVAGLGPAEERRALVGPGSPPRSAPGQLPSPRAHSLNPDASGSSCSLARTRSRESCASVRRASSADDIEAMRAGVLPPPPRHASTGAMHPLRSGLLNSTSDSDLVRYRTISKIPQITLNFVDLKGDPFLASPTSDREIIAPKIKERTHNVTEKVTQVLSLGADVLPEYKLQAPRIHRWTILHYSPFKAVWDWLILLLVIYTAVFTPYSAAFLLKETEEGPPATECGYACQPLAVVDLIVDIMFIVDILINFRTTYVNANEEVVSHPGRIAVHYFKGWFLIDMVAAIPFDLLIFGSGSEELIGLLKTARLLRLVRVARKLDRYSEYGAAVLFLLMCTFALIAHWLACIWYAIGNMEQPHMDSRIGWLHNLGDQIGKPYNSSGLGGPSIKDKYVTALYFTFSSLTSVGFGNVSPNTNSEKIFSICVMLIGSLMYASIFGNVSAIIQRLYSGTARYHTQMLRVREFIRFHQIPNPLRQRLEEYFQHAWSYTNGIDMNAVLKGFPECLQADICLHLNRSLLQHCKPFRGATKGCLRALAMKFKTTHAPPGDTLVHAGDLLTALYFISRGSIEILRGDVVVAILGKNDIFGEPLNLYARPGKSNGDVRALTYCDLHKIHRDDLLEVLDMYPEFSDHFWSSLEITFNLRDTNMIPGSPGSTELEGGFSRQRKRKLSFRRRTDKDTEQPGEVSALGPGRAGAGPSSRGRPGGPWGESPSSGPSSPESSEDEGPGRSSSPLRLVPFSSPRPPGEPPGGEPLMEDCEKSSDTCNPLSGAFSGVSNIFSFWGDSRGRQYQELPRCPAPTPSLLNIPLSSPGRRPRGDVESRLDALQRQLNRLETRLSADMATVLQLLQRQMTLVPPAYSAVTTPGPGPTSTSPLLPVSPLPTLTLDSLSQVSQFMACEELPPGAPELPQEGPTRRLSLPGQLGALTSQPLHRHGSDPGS

Row | Compound | hERG current change (%, negative = inhibition) at 1uM
1 | CC(C)OCCCNC(=O)c1ccc(NC(=O)C2=CSCCO2)cc1 | 10.2%
2 | COc1cc(/C=C2\CCC/C(=C\c3ccc(O)c(OC)c3)C2=O)ccc1O | 13%
3 | CCCCOC(=O)c1ccc(NC(=O)CSc2nncn2C)cc1 | 7.9%
4 | O=C(NCc1ccc(N2CCCC2=O)cc1)Nc1ccccc1 | 14.8%
5 | CCN1CCN(c2nc(S(=O)(=O)c3ccc(C)cc3)c(Cl)s2)CC1.Cl | 1.63%
6 | COc1ccc(C(=O)NC2CC(C)(C)Cc3c2cnn3-c2ccccc2C)o1 (centres unmarked) | -13.7%
7 | COC(=O)c1c(NC(=O)COc2ccc(Cl)cc2)sc2c1CC(C)(C)NC2(C)C | 8.23%
8 | CCn1ccnc1CN(C)C(=O)c1ccc2nc(Cc3ccc(OC)cc3)oc2c1 | 8.7%
9 | O=C(O)c1cccnc1SC1CC(=O)N(c2cccc(C(F)(F)F)c2)C1=O (centres unmarked) | 9.75%
10 | O=C(Oc1ccccc1/C=C\C(=O)c1cc2ccccc2o1)c1ccccc1 | 9.81%
11 | COC(=O)c1scc(S(=O)(=O)c2ccccc2)c1N | 18.3%
12 | COc1cccc(-c2nc(CS(=O)(=O)CC(=O)NCc3ccccc3)c(C)o2)c1 | 3.5%
13 | O=C(CC(c1ccccc1)c1ccccc1)OCn1nnc2ccccc2c1=O | 11.7%
14 | O=C(Nc1ncccn1)c1cc(-c2ccc(F)cc2)nc2ccccc12 | -1.76%
15 | CCn1c(Cc2ccccc2)nnc1SCC(=O)NC(C)(C)C | -3.93%
16 | Cc1ccc(NC(=O)CCCNC(=O)c2ccc(Cl)cc2)c(Br)c1 | 13.7%
17 | CCC1CCCCN1CCCNC(=O)c1ccc2c(=O)n(CCOC)c(=O)[nH]c2c1 (centres unmarked) | 13.3%
18 | CCOC(=O)C1=C(CCc2ccccc2)NC(=O)NC1c1ccc2ccccc2c1 (centres unmarked) | 10.6%
19 | CCN1C(=O)[C@@H]2[C@@H](c3ccc(-c4ccc(Cl)c(Cl)c4)c(OC)c3)N3CCC[C@@]3(C(=O)OC)[C@@H]2C1=O.O=C(O)C(F)(F)F | 13%
20 | COc1ccc(OCC(O)CNS(=O)(=O)c2cccs2)cc1 (centres unmarked) | 14.5%
21 | COc1ccc(/C=N/NC(=S)NC2CCS(=O)(=O)C2)cc1 (centres unmarked) | 15.8%
22 | O=Cc1c(NCCc2ccc(F)cc2)c2ccccc2[nH]c1=O | 4.06%

Row | Compound | hERG current change (%, negative = inhibition) at 1uM
23 | C=CCn1c(SCC(=O)Nc2cc(C)on2)nnc1C1COc2ccccc2O1 (centres unmarked) | -2.58%
24 | COc1ccc(-c2cc(C(=O)N(C)Cc3ccccc3)c3ccccc3n2)cc1 | 12.9%
25 | CN(C)CCCNC(=O)CCc1ncc(C(F)(F)F)cc1Cl | 12.4%
26 | COc1ccc(C(=O)NCc2nnc(SCC(=O)NCc3ccco3)o2)cc1OC | 14.2%
27 | c1ccc(C2=NC(c3ccccc3)N=C(c3ccccc3)N2)cc1 | 2.44%
28 | Cc1c(NC(=O)C(C)OC(=O)Cc2ccc(F)cc2)c(=O)n(-c2ccccc2)n1C (centres unmarked) | 11.8%
29 | Cc1ccc(SCCNC(=O)c2ccc(C)c(S(=O)(=O)Nc3cccc(C)c3)c2)cc1 | 20%
30 | O=C(CSC1=NCCS1)Nc1ccc2ccccc2c1 | 3.16%
31 | CCCC(=O)NC(c1ccc(OC)cc1)c1ccc2cccnc2c1O (centres unmarked) | 12.7%
32 | O=C(CSc1nnc(Cc2ccccc2)n1-c1ccccc1)NNC(=O)Cc1ccccc1 | 2.24%
33 | CCOc1ccc2nc(SCC(=O)NNC(=O)c3ccco3)c(C)cc2c1 | 7.83%
34 | COc1cnn(Cc2ccccc2)c(=O)c1SCc1ccccc1 | -2%
35 | Cc1cc(/C=N/n2cnnc2)c(C)n1-c1ccccc1 | 8.97%
36 | COc1ccc(NS(=O)(=O)c2cc(NC(=O)c3nc4nc(C)cc(C)n4n3)ccc2C)cc1 | 7.39%
37 | CC(C)C(NC(=O)Nc1ccccc1)C(=O)Nc1cccc(S(=O)(=O)N(C)C)c1 (centres unmarked) | 15.9%
38 | COc1ccc(-n2nnnc2SCC(=O)c2ccc3c(c2)OCCO3)cc1 | 12.9%
39 | Cc1c(NC(=O)CSc2nc3ccccc3[nH]2)c(=O)n(-c2ccccc2)n1C | -9.76%
40 | COC(=O)c1ccc(COC(=O)C(CCSC)NC(=O)COc2ccccc2)cc1 (centres unmarked) | 10.8%
41 | Cc1ccc(CCNC(=O)C2CCN(S(=O)(=O)N3CCOCC3)CC2)cc1 | 13.7%
42 | C=CCN(C(=O)OC(C)(C)C)S(=O)(=O)NCc1ccccc1 | 11.9%
43 | CC1CCN(C(=O)CCN2C(=O)C3C4C=CC(C4)C3C2=O)CC1 (centres unmarked) | 12.7%
44 | Cc1ccc(CNC(=O)CS(=O)(=O)c2ccccc2)cc1 | 11%
